Some of the results follow.

The subject of this test is HSkMC (human skeletal muscle cells). The test can be described thus: cytotoxicity call (relative viability < 0.9). Particulars: 10 µM.
Consider `C[C@@H]1CN([C@@H](C)CO)S(=O)(=O)c2ccc(C#C[C@@H](C)O)cc2O[C@@H]1CN(C)C(=O)C1CCCCC1`, for which the cytotoxicity call was “inactive”. Take `CCn1c(=S)[nH]c2ccccc21`: the cytotoxicity call was “inactive”. Under `Cc1ccc(-c2cnc3c(c2)C(=O)N([C@H](C)CO)C[C@H](C)[C@@H](CN(C)C(=O)Cc2cccnc2)O3)cc1` stands “inactive”; under `O=C(C[C@H]1CC[C@H]2[C@@H](COC[C@@H](O)CN2C(=O)Nc2cccc(F)c2)O1)NCCCN1CCOCC1`, “inactive”; under `NC(Cc1cc(I)c(Oc2cc(I)c(O)c(I)c2)c(I)c1)C(=O)[O-].[Na+]` (stereo not given), “inactive”. For the compound `C[C@H](CO)N1C[C@H](C)[C@H](CN(C)Cc2ccc(C(=O)O)cc2)Oc2ccc(NC(=O)Cn3cnnn3)cc2C1=O`, the cytotoxicity call was “inactive”. For the compound `COc1ccccc1S(=O)(=O)N[C@H]1C=C[C@H](CC(=O)N2CCN(C)CC2)O[C@@H]1CO`, the cytotoxicity call was “inactive”.

Regarding `CC(C)Cn1c(N)cc(=O)n(C)c1=O`, the cytotoxicity call is “inactive”. To `C=CCN1[C@H](Cc2ccccc2)[C@@H](c2cn(CCCCNC(=O)C(=O)NC)nn2)Oc2ccccc2S1(=O)=O` belongs “inactive”.

In the case of `C[C@H](CO)N1C[C@H](C)[C@@H](CN(C)Cc2ccccc2)Oc2ccc(NC(=O)Nc3ccc(C(F)(F)F)cc3)cc2C1=O`, the cytotoxicity call is “active”.

For the compound `COc1cc(/C=C/C(=O)N2CCC=CC2=O)cc(OC)c1OCCOCCOCCOCCC(=O)OC(C)(C)C`, the cytotoxicity call is “active”. For `C=CCn1c(=O)c2c(OC)ccnc2n(C)c1=O`, the cytotoxicity call was “inactive”. Under `CCCCC/C=C/CCC(=O)N[C@H]1[C@H](Oc2c3cc4cc2Oc2ccc(cc2Cl)[C@@H](O[C@@H]2O[C@H](CO)[C@@H](O)[C@H](O)[C@H]2NC(C)=O)[C@@H]2NC(=O)[C@H](NC(=O)[C@@H]4NC(=O)[C@H]4NC(=O)[C@@H](Cc5ccc(c(Cl)c5)O3)NC(=O)[C@H](N)c3ccc(O)c(c3)Oc3cc(O)cc4c3)c3ccc(O)c(c3)-c3c(O[C@H]4O[C@H](CO)[C@@H](O)[C@H](O)[C@@H]4O)cc(O)cc3[C@@H](C(=O)O)NC2=O)O[C@H](CO)[C@@H](O)[C@@H]1O` stands “inactive”; under `c1cc(CCN2CCNCC2)ccn1`, “inactive”. `COC(=O)C[C@@H]1CC[C@@H]2[C@H](COc3ccc(NS(=O)(=O)c4ccccc4Cl)cc3C(=O)N2C)O1`: the cytotoxicity call is “inactive”. Under `COc1ccc2c3c(n(c2c1)C)[C@@H](CO)N(Cc1cc(cc(c1)OC)OC)C[C@]13CN(C1)C(=O)NC(C)C` stands “inactive”; under `O=C1NC2=C(C(=O)OC2)[C@H](c2ccccc2)N1`, “inactive”. Under `C[C@@H]1CCCCO[C@@H](CN(C)Cc2ccc(Cl)c(Cl)c2)[C@H](C)CN([C@@H](C)CO)C(=O)c2cc(NS(=O)(=O)c3ccc(F)cc3)ccc2O1` stands “active”; under `NC(=O)[C@@H]1C(=O)C[C@@H]2C[C@@H]3Cc4cccc(O)c4C(=O)[C@@H]3C(=O)[C@]2(O)C1=O`, “inactive”; under `C[C@H]1CN([C@@H](C)CO)C(=O)Cc2cc(NC(=O)Nc3ccc4c(c3)OCO4)ccc2O[C@H]1CN(C)C(=O)Nc1cccc2ccccc12`, “inactive”.

With `Cc1ccc(S(=O)(=O)N(C)C[C@@H]2Oc3ccc(NS(=O)(=O)c4ccc(F)cc4)cc3CC(=O)N([C@@H](C)CO)C[C@H]2C)cc1`, the cytotoxicity call is “inactive”. As to `C[C@H](CO)N1C[C@H](C)[C@H](CN(C)Cc2cncnc2)Oc2cc(-c3ccccc3F)ccc2S1(=O)=O`, the cytotoxicity call was “inactive”. For the compound `O=C1C2CC3CC1CC(O)(C3)C2`, the cytotoxicity call was “inactive”.

For `COc1ccc(CN(C)C[C@@H]2OCCCC[C@H](C)Oc3ccc(NS(=O)(=O)c4cccs4)cc3C(=O)N([C@H](C)CO)C[C@@H]2C)cc1`, the cytotoxicity call was “inactive”. To `COc1ccc2c3c(n(c2c1)C)[C@H](CO)N(C[C@]13CN(C1)C(=O)c1ccncc1)C(=O)C1CCCCC1` belongs “inactive”; to `C[C@H](CO)N1C[C@H](C)[C@H](CN(C)CC2CCCCC2)Oc2c(NC(=O)Nc3cccc4ccccc34)cccc2C1=O`, “inactive”; to `C[C@@H]1CN([C@H](C)CO)S(=O)(=O)c2ccc(C#CCN(C)C)cc2O[C@H]1CN(C)C(=O)C1CCCCC1`, “inactive”. To `CCCNC(=O)C[C@@H]1CC[C@H]2[C@H](COc3ccc(NC(=O)c4ccc5c(c4)OCO5)cc3C(=O)N2C)O1` belongs “inactive”; to `C[C@H](CO)N1C[C@H](C)[C@H](CN(C)C(=O)NC2CCCCC2)Oc2ccc(NC(=O)Nc3ccc(C(F)(F)F)cc3)cc2C1=O`, “inactive”; to `COc1ccc(CN(C)C[C@H]2OCCCC[C@@H](C)Oc3ccc(NS(=O)(=O)c4ccccc4)cc3C(=O)N([C@H](C)CO)C[C@H]2C)cc1`, “inactive”.

Values taken from the antibiotic and cytotoxicity screens of Wong et al. (2023).
